Reference: PubChem BioAssay AID1030 (National Center for Advancing Translational Sciences (NCATS), 2008)
“And” between values parts separate entries of the source, which are not always exact repeats. Equal values may be shown once. The campaign covered roughly 220,000 compounds. About 16,000 (7.3%) were called active. The inconclusive results got no clear call from the source; some entries with a clear call stand among them for comparison. The call rests on the fitted dose curve; in most records, active means well fitted inhibition curve with a large enough effect (not every such curve was filed as active); inconclusive means small, poorly fitted or top-dose-only effect, or another doubt; inactive means no such curve, though single readings can be large or run the other way. Potencies of inconclusive entries are left out as doubtful fits. Some compounds were tested as several samples or in several runs, with calls that do not always agree.
Potency means the concentration at half of the fitted maximal effect; tags describe the fitted curve by direction and shape.
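Wherever activity, negative = inhibition is given: plate controls were no enzyme wells and a reference inhibitor.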

These compounds were tested against Aldehyde dehydrogenase 1A1 (Homo sapiens) (UniProt P00352) (assay: qHTS Assay for Inhibitors of Aldehyde Dehydrogenase 1 (ALDH1A1)). Details: Purified ALDH1A1, NADH fluorescence, propionaldehyde substrate; series mostly up to 75.3 µM.
UniProt P00352, sequence (P00352 whole entry, looked up): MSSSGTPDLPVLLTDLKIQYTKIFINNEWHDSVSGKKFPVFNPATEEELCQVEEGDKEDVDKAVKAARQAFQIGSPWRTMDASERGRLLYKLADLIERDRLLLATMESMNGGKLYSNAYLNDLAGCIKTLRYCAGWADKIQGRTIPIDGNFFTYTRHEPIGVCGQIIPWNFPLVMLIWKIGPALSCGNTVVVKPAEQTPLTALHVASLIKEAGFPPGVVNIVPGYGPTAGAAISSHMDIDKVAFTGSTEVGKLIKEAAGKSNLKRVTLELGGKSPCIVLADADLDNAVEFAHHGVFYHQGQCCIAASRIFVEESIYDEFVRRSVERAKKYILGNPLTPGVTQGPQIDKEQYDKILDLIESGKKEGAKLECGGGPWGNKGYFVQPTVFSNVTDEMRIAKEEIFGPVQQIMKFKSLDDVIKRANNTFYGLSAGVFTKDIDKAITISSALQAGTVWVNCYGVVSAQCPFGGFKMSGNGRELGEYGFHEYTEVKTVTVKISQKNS
For CN1C(=O)C(=Cc2ccc(N3CCCCCC3)cc2)C(=O)N(C)C1=O, the Potency was active: 0.112 µM. For COC(=O)NC(=S)Nc1ccccc1NC(=S)NC(=O)OC, the Potency was active: 10 µM. For O=C(O)/C=C\C(=O)Nc1ccc(Oc2ccc(Br)cc2)cc1, the Potency was active: 1.41 µM. With CCCOc1ccc(N2C(=O)CC(N3CCC(O)(c4cccc(C(F)(F)F)c4)CC3)C2=O)cc1 (centres undefined) the Potency was inconclusive [inhibitor, single point]. For COc1ccc(C(c2ccc(OC)cc2)C(Cl)(Cl)Cl)cc1, the Potency was active: 14.1 µM. With Cn1c(O)c(C=NC2CC3CCC2(C)C3(C)C)c(=O)[nH]c1=O (centres undefined) the Potency was “inactive”. With Cc1ccccc1-n1c(O)c(/C=N/N2CCOCC2)c(=O)[nH]c1=S the Potency was inconclusive [inhibitor, single point]. With Nc1nnnn1CCO the activity, negative = inhibition was inactive: -0.295% [at 13.5 µM]. O=C(Oc1ccccc1)N1CCC2(CCCN(Cc3ccccc3)C2)CC1 was tested, and the Potency was inconclusive [inhibitor, single point]. For O=C1/C(=C/c2ccc3c(c2)OCO3)N2CCC1CC2, the Potency was inconclusive [inhibitor, partial curve, poor fit]. For CCC(=O)c1cc(F)c(N2CCN(CC)CC2)cc1C, the Potency was active: 20 µM. With CCOC(=O)N(c1ccccc1)P1(=S)OCCO1 the Potency was inconclusive [inhibitor, single point]. Cc1ccc(-n2c(O)c(C=Nc3ccc(Br)cn3)c(=O)[nH]c2=O)cc1 was tested, and the Potency was “inactive”. O=S(=O)(c1ccccc1)N1CC1c1ccccc1 (centres undefined) was tested, and the Potency was inconclusive [inhibitor, single point]. For O=C1N=C(N2CCCCC2)SC1=C1CCCCC1, the Potency was active: 8.91 µM. O=P(c1ccccc1)(c1ccccc1)N1CC2(CC2)CC(O)(c2ccccc2)C1 (centres undefined) was tested, and the Potency was “inactive”. OC(Cn1c2ccccc2c2ccccc21)C[n+]1ccccc1 (centres undefined) was tested, and the Potency was “inactive”. Nc1ccc2c(c1)oc1ccccc12 was tested, and the Potency was inconclusive [inhibitor, partial curve]. In the case of COc1ccc(OP(=O)(Nc2ccccc2)Nc2ccccc2)cc1, the Potency is reported as “inactive”. In the case of O=C(c1cc(C(=O)NCc2ccccc2)c(=O)n(Cc2ccccc2)c1)c1cc(Cl)ccc1O, the Potency is reported as inconclusive [inhibitor, single point]. For O=C(c1c[nH]cc1-c1ccccc1)c1cccc2ccccc12, the Potency was “inactive”. With COc1ccc(NC(=O)N2CCC3(CC2)CCN(C(=O)Oc2ccccc2)CC3)cc1 the Potency was active: 10 µM. Cc1ccc(N2C(=O)NC(=O)/C(=C/c3cnc(-c4ccccc4)nc3)C2=O)cc1C was tested, and the Potency was inconclusive [inhibitor, single point]. In the case of C=CCNC(=O)c1c(N)n(CCN2CCOCC2)c2nc3ccccc3nc12, the Potency is reported as inconclusive [inhibitor, single point]. In the case of CC(N)Cc1ccccc1Sc1ccc(O)cc1 (centres undefined), the Potency is reported as “inactive”. For NC1CCc2cc(O)c(O)cc2C1 (centres undefined), the Potency was “inactive and active: 7.94 µM”. For CCOc1c(Cl)cc(CNC(C)C(O)c2ccccc2)cc1OC (centres undefined), the Potency was “inactive”. With COc1ccc(N2C(=O)CC(N3CCC(n4c(=O)[nH]c5ccccc54)CC3)C2=O)cc1 (centres undefined) the Potency was inconclusive [inhibitor, single point]. With O=c1oc2ccccc2c(O)c1C(c1ccccn1)c1c(O)c2ccccc2oc1=O the Potency was inconclusive [inhibitor, single point]. CCN(CC)c1ccc([N+](=O)[O-])c2cccnc12 was tested, and the Potency was inconclusive [inhibitor, single point]. In the case of O=C1NC(=O)N(CCC2=CCCCC2)C(=O)/C1=C\c1cccs1, the Potency is reported as active: 1.26 µM. For O=C(N1CCOCC1)N1CCN(C(c2ccccc2)c2ccccc2)CC1, the Potency was inconclusive [inhibitor, single point]. In the case of COc1ccccc1N1C(=O)NC(=O)/C(=C\c2cnn(-c3ccccc3)c2)C1=O, the Potency is reported as active: 8.91 µM. In the case of CN(C)CCNC(=O)c1cccn(Cc2cccc(C(F)(F)F)c2)c1=O, the Potency is reported as inconclusive [inhibitor, single point]. For CC(C)OCCCNC(=O)c1c(N)n(Cc2cccs2)c2nc3ccccc3nc12, the Potency was inconclusive [inhibitor, partial curve]. For CCOP(=O)(OCC)C(c1ccccc1)N(C)C=O (centres undefined), the Potency was active: 17.8 µM. c1ccc(-c2cc3c(nc2-c2ccccc2)CCNC3)cc1 was tested, and the activity, negative = inhibition was inactive: 0.745% [at 13.5 µM]. In the case of COCC#CCN1CCCCC1c1cccnc1 (centres undefined), the Potency is reported as “inactive”. In the case of O=C(c1c[nH]c2ccc(S(=O)(=O)N3CCC4(CC3)OCCO4)cc2c1=O)N1CCC2(CC1)OCCO2, the Potency is reported as inconclusive [inhibitor, single point]. COc1ccc(CCn2c(O)c(/C=N/NC(=O)c3ccncc3)c(=O)[nH]c2=O)cc1OC was tested, and the Potency was inconclusive [inhibitor, single point]. With CC1=CC(=O)C2=C(C)C[C@@H](O)[C@@H]3[C@@H](OC(=O)[C@H]3C)[C@H]12 the Potency was “inactive”. With CC1=CCCC2C1(C)CCC(C)C2(C)CC/C(C)=C/C[n+]1cn(C)c2c(N)ncnc21 (centres undefined) the Potency was active: 17.8 µM. With COc1ccc(S(=O)(=O)Nc2nnc(CC(C)C)s2)cc1 the Potency was inconclusive [inhibitor, partial curve]. With COc1ccc(N2C(=O)/C(=C/c3cc(C)n(-c4ccc(C)cn4)c3C)C(=O)NC2=S)c(OC)c1 the Potency was inconclusive [inhibitor, single point]. With CCOC(=O)c1cc(C(O)(C(=O)OC)C(F)(F)F)c(/N=C/N(C)C)o1 (centres undefined) the Potency was inconclusive [inhibitor, single point]. COc1cccc(-n2c(/C=C/c3ccc(O)c(O)c3)nc3ccccc3c2=O)c1 was tested, and the Potency was active: 25.1 µM. In the case of CC(C)[C@H](CO)Nc1nc(Nc2cccc(Cl)c2)c2ncn(C(C)C)c2n1, the Potency is reported as inconclusive [inhibitor, single point]. For CC(=O)c1ccc2c(c1)C1C(Cl)C(Sc3ccccc3[N+](=O)[O-])CC1C(c1ccccc1[N+](=O)[O-])N2 (centres undefined), the Potency was inconclusive [inhibitor, full curve, poor fit]. CN(C)CCC=C1c2ccccc2CCc2ccccc21 was tested, and the Potency was active: 17.8 µM. For C[C@H]1C(=O)O[C@H]2CCN3CC=C(COC(=O)[C@](C)(O)[C@@]1(C)O)C23 (some centres undefined), the Potency was “inactive”. CCN(CC)CCCN=Cc1c(O)n(-c2ccccc2F)c(=O)[nH]c1=O was tested, and the Potency was “inactive”. In the case of Cc1ccc(-n2c(-c3nn(C)c(C)c3Cl)n[nH]c2=S)cc1, the Potency is reported as active: 31.6 µM. For COc1ccc(OCC(=O)N2CCN(Cc3c[nH]c4ccccc34)CC2)cc1, the Potency was “inactive”. For N#CC1=C(N)Oc2n[nH]c(-c3cccs3)c2C1c1ccco1 (centres undefined), the Potency was inconclusive [inhibitor, single point]. For COc1ccc(-c2nc3ccccc3c(=O)o2)cc1, the Potency was inconclusive [inhibitor, single point]. CCCC[N+]12CCC(CC1)C(=C(c1ccccc1)c1ccccc1)C2 was tested, and the Potency was “inactive”. For CC1(C)N=C(c2ccccc2)[C@@H]2C(c3ccc([N+](=O)[O-])cc3)N21 (some centres undefined), the Potency was “inactive”. With CCCCOC(=O)COc1cc(C)cc2oc(=O)c3c(c12)CCC3 the Potency was active: 10 µM. For COc1ccc(-c2nc3ccccc3c(=O)n2-c2nccs2)cc1, the Potency was “inactive”. For COC[C@]12CN(C=O)C3C4C(OC)C1[C@@]3(C1CC3(O)C(OC)C(O)C4(OC(C)=O)C1C3OC(=O)c1ccccc1)[C@@H](OC)CC2O (some centres undefined), the Potency was “inactive”. For CCC1CN2CCC1CC2C(O)c1ccnc2ccc(OC)cc12 (centres undefined), the Potency was inconclusive [inhibitor, single point]. In the case of COc1ccc(N2C(=O)NC(=O)/C(=C\c3ccc([N+](=O)[O-])s3)C2=O)cc1, the Potency is reported as active: 39.8 µM. In the case of COc1ccc(CCNC(C)CCc2ccc(OC)cc2)cc1 (centres undefined), the Potency is reported as “inactive”. For O=C(c1ccccc1F)c1cn(Cc2ccc(F)cc2)c2ccccc12, the Potency was inconclusive [inhibitor, full curve]. In the case of C=CCSC1=N/C(=C\c2cc(OC)c3c(c2)OCO3)C(=O)S1, the Potency is reported as inconclusive [inhibitor, partial curve]. For C[C@H](NC(=O)[C@@H](N)Cc1ccc(O)cc1)C(=O)NCC(=O)N(C)[C@@H](Cc1ccccc1)C(=O)N[C@H](CO)CCS(C)=O (some centres undefined), the Potency was “inactive”. For O=C(c1cc2ccccc2oc1=O)N1CCC2(CC1)OCCO2, the Potency was inconclusive [inhibitor, single point]. COC(=O)C(C)Oc1cc(C)cc2oc(=O)c3c(c12)CCCC3 (centres undefined) was tested, and the Potency was inconclusive [inhibitor, partial curve]. With COc1ccc(CCNC(=O)c2c(N)n(CCN3CCOCC3)c3nc4ccccc4nc23)cc1 the Potency was inconclusive [inhibitor, partial curve]. For Cn1c(C(=O)N2CCC(C(=O)N3CCC4(CC3)OCCO4)CC2)cc2sccc21, the Potency was inconclusive [inhibitor, single point]. In the case of CCC(NC(=O)OC(C)(C)C)C(=O)Oc1cc(C)cc2oc(=O)c3c(c12)CCC3 (centres undefined), the Potency is reported as inconclusive [inhibitor, full curve]. With C[C@@H](O)CN(CCN(C[C@@H](C)O)C[C@@H](C)O)C[C@@H](C)O.O=[N+]([O-])O.[Cu] the Potency was inconclusive [inhibitor, partial curve]. In the case of CN1CCN(Cc2ccc(Br)s2)CC1, the Potency is reported as “inactive”. CC12CCC3C(CC=C4CC(O)CCC43C)C1C/C(=C\c1ccccc1F)C2=O (centres undefined) was tested, and the Potency was inconclusive [inhibitor, single point].
